The source gives no read counts; variants with many changes may rest on few reads.
B1: LINE1-mini (parent)
chain: GGCAGAGCUCAACACAGCGUGGCAAAGUGGCUGUGGCUAGACUGCC

Variants of: B1
Test: self-cleavage, relative activity (ratio to wild type); higher = more cleavage; in vitro, sequencing; the parent is a self-cleaving ribozyme

Row | Variant | self-cleavage
1 | G2C A11C G40A | 0.01
2 | G21U C31G G44U | 0.03
3 | G2A C13A G30U C46G | 0.26
4 | C3A G5U A6C A14U | 0.14
5 | C10U G19A C42G | 0.01
6 | G7A C15G C31G C42U C46A | 0.05
7 | A12G A26C G30A A39U | 0.03
8 | G17A C18G G30A U34C | 0.06
9 | C13A A14U C15U C37U C45A | 0.04
10 | C3A A4C C8G G40U U43G | 0.03
11 | C3U A4U C23A G40C C42A | 0.16
12 | A6G G36U C37A | 0.03
13 | C13G G19U U20A G40A | 0.01
14 | G5A A11C G29C | 0.01
15 | U9A U32G U34A A39U | 0.02
16 | G1U G19A U34C G44A | 0.04
17 | C3G G5C A11C G30C | 0.01
18 | C8U A12G C23U A39U | 0.01
19 | A16G G29C G30C G36U G44U | 0.05
20 | G1A C3G G5A U9A | 2.88
21 | C10A G19U A39U | 0.16
22 | C10U A12C C23G C46U | 0.01
23 | G2U G7U A25C | 0.02
24 | A4U C13G G17A | 0.01

Row | Variant | self-cleavage
25 | G5C C18A A24C G40A | 0.06
26 | C13A G27U U28C C31A | 0.02
27 | A6C A14U C18A | 0.02
28 | A6U C18G A41C | 0.07
29 | G5C C8A C10G G19C G22A | 0.02
30 | A6U C37U U43C | 0.07
31 | G2U G7U C18U | 0.04
32 | A4C G21U U34A C37U U43G | 0.03
33 | G7C C8U U9C A25C G27U | 0.04
34 | U9A A16U G17A | 0.02
35 | G2U C13G G21A U32A U34C A39C | 0.03
36 | A4U C15U C18A G19U C31U G44A C46U | 0.03
37 | G21C U28C C37A | 0.01
38 | G7U G22A G40C | 0.25
39 | U9C U20A G40A | 0.01
40 | G5C G30A G36C | 0.06
41 | C3A U20A A39C C46U | 0.01
42 | G2A G21A C31G G33U A39G | 0.13
43 | G5A A6G C8A U20C | 0.11
44 | A6U C31A U38A | 0.03
45 | A4U A14G G19U | 0.02
46 | G1U C10G G30A G44U | 0.02
47 | A24G A26C A41C | 0.05
48 | G1U A14U G27A A41U | 0.02

Row | Variant | self-cleavage
49 | G1U G19A G33A G40U | 0.05
50 | G22A G44U C46A | 0.12
51 | C10G G21A A24C G44U | 0.01
52 | A4U C13U A24C G29C | 0.07
53 | G7A U9G G17C C18A G27U | 0.04
54 | A12C C18G G22A C31A G36C | 0.01
55 | A6U C13U G19C C23A | 0.24
56 | C10G U20G U32C | 0.08
57 | C3A C8G U9A G35U G36U | 1.04
58 | G1A C10A C13U G19A G21A G29U | 0.1
59 | G1A U20G G27U | 0.93
60 | G2C C8G G22A C23A C37A G44C | 0
61 | G7A A12U C31U | 0.04
62 | A11U A26C A39G | 0.03
63 | G5C C15G C23U U32A | 0.01
64 | G5A C8A U34G | 0.45
65 | C3G A14U C15G U28G G35U C42U | 0
66 | G1U A11C U28A | 0.04
67 | C3G C10U C13A G30C U32A | 0.02
68 | G19U A25U C46G | 0.13
69 | G21U C23U G40A A41G | 0.04
70 | G2C A12U G33A | 0.03
71 | A16C G22U U28G C31U | 0.02
72 | G7U U28G U38A G40U | 0.12

Row | Variant | self-cleavage
73 | G21A A24C G30A U32A G36C | 0.04
74 | G7U A11U C37U C46U | 0.02
75 | G1U C3A A16U G17U G40A | 0.2
76 | A11C C18G G36U | 0.01
77 | A12C C13U A26G U34C A41U G44C | 0.02
78 | A11C G33A U38A G40U | 0.01
79 | G29C G30U G33A G35A | 0.02
80 | A14U G40A C42A | 0.03
81 | A12U G19A G21U C23G G27A | 0.15
82 | A6C C18A G29C U38G C45G | 0.01
83 | A6U G19A G22A | 0.77
84 | A4G G7U G21U G22C G44C | 0.09
85 | A4C A12C G27C G36U | 0.01
86 | G17C G29U C31G U34A C46U | 0.14
87 | A26G U38A A39C | 0.59
88 | G29C G30A U38C | 0.22
89 | A4C G17U G36C C37U A41C | 0
90 | A4C U34C G36A | 0.05
91 | A6U C8A A12C A14G G22U C23A G36A C46A | 0.19
92 | C3A A4G C23U | 0.57
93 | G7C A16C U20A G27A G35U | 0.02
94 | A11G A12G C18G G27A G35U A41G | 0.01
95 | C18U G36C C46U | 0.01
96 | G7U U9A G30U G40C | 0.03

Row | Variant | self-cleavage
97 | C8G A24G G35A G36C | 0.03
98 | C3A C13G G22U G29A | 0.82
99 | G22C C23U U38C C42A | 0.02
100 | G5U G17U G21U | 0.04
101 | C10A G21A C23U C46A | 0
102 | C3G G21A G40U C46G | 0.08
103 | A12G C37G C45G | 0.09
104 | A16C G17C G36U A41U | 0.09
105 | G1U C18A A24G G27C | 0.28
106 | G5U A11C G17A G30U G40C | 0.01
107 | G1U C15G G40A A41C | 0.03
108 | G19C A24C G30U | 0.28
109 | G7U C10G G21C G33C G40U | 0.02
110 | C3U G7A U38C | 0.04
111 | C3A U20G G22C G36C | 0.25
112 | A14G A26G G40U | 0.07
113 | G5U C23A G29A A39U A41C | 0.2
114 | G7U C8U G44A | 0.57
115 | C18U U28C G36C C46G | 0.07
116 | C15U G19U U34G | 0.03
117 | G19U G21C C42G | 0.01
118 | A4C A14C G21U A25G C45U | 0.03
119 | G5U G7A C10A G21U | 0.04
120 | G1A A4G C10U G22A U34G | 0.13

Row | Variant | self-cleavage
121 | G7U G35U C46G | 0.16
122 | C8G C10U G17A G21A A39C | 0.07
123 | C8U U9G G27U | 0.03
124 | C10A G19U A25U A26G G35U | 0.01
125 | A6C A26C G40C | 0.11
126 | C13A C18A A25U G27U C31A | 0.02
127 | A14G C18A U28C C45U | 0.03
128 | G2U C15U C46A | 0.08
129 | G5A A16C A26U | 0.01
130 | G2C A11U G30C C37A G40C U43C | 0
131 | C3G C8G G17U U32A C37A | 0.03
132 | A4U A26G C46U | 0.04
133 | C3U G7C C8U | 0.84
134 | A14G G22A G36U | 0.18
135 | A6G C8U C10A C23G C45G | 0.02
136 | G5U U9C C31U U32G G35A A39G | 0.03
137 | G2A A14G A41G | 0.09
138 | G5U G17U U38A U43A | 0.12
139 | A12U G21U G27A | 0.49
140 | C13A C18A C46A | 0.02
141 | G5C U28G C37U | 0.02
142 | A6G A16G G17C G21A G35C G40C A41C | 0.04
143 | A6C A16U A26G | 0.38
144 | G1C G5C A24C G29U G30U | 0.03

Row | Variant | self-cleavage
145 | G2A G19A A25U U32G U34A | 0.06
146 | C10A C18G C23U U43C | 0.02
147 | A6U G7C C13A G40A C42A | 0.02
148 | G5A G22C U28G U32A | 0.01
149 | G21U G27A G36C C37G C45G | 0.02
150 | G5U G22U C37A G40A G44A | 0.02
151 | A12U C13U C23U G33A U38G | 0.01
152 | G1A G5A C46U | 0.24
153 | G1A G7A C18A U20C G33U U38A | 0.27
154 | C3A G22A G30A | 0.95
155 | U28C U34A C37A A41C | 0.04
156 | G21A C23U A26U | 2.45
157 | U9A G30A U32C A39G | 0.13
158 | G2A C15G A16G G17C C18A G27C G33U | 0.05
159 | G2C C3A A4G C8U G21A | 0.19
160 | C15U G21U G29U G30A C42G G44U | 0.02
161 | C3A G27U G35A U38C | 0.08
162 | A6U G17C G19C G22U A39C | 0.16
163 | G2U C3G G44C | 0.23
164 | A14U U32C G36U | 0.03
165 | G27C G33A G35C C42A | 0.01
166 | G19A C31A U38G | 0.13
167 | C3U G5C A24G | 0.18
